In PubChem BioAssay AID488969 (Vanderbilt High Throughput Screening Facility, 2010):
The full ranking holds about 110,000 compounds; the median of “z-score” is about -0.1, and the highest 2% start at about 2. The list shows a part of the results. The source made the active and inactive calls.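 Rule for the calls: active = z-score in the third read window above 3 or below -3; inactive = the rest.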

The molecules below were run against Metabotropic glutamate receptor 8 (Rattus norvegicus) (UniProt P70579) (assay: rat mGluR8 modulators via GIRK flux, primary screen, cell-based, thallium flux, HTS (AID 488969)). Conditions: HEK293 rat mGluR8, GIRK (G protein-gated inwardly rectifying potassium channel) thallium flux, FluoZin2; at 10 µM; stronger effect = higher value; submaximal glutamate (EC20) added with thallium.
UniProt P70579, sequence (P70579 whole entry, looked up): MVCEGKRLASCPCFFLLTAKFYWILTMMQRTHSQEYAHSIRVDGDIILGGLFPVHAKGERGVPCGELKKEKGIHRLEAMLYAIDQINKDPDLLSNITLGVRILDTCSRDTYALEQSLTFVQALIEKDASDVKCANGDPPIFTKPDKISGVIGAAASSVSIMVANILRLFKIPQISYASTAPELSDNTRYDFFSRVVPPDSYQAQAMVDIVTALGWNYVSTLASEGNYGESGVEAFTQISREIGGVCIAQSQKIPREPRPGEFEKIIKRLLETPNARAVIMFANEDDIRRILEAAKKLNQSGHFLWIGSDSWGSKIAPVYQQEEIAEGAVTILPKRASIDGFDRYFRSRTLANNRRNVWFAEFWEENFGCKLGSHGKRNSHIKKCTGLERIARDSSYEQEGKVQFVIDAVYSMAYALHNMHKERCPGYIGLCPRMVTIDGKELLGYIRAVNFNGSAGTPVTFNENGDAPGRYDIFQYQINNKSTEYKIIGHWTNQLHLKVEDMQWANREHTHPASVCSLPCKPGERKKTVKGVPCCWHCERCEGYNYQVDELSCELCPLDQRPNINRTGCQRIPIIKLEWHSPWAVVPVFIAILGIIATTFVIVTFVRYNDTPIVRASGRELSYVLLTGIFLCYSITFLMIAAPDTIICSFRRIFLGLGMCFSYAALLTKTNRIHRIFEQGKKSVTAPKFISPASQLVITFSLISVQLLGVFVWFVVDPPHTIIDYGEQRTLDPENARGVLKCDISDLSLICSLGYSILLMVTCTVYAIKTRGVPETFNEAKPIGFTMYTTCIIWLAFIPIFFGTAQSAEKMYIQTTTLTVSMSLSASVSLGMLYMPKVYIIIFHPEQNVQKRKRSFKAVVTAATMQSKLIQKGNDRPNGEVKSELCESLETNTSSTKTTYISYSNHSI

Row | Compound | z-score
1 | COC(=O)c1ccc(NC(=O)CSc2nncn2C)cc1 | 0.0719
2 | Cc1cc(NCCOCCO)n2ncc(-c3ccc(Cl)cc3)c2n1 | -1.72
3 | CS(=O)(=O)N1CCN(C(=O)c2ccccc2)C1 | -0.2
4 | Cc1ccnc(SCc2cc(=O)c(OC(=O)c3ccc(Br)o3)co2)n1 | -0.552
5 | CCOc1cc(S(=O)(=O)n2nc(C)cc2C)ccc1F | 0.162
6 | CC(C)(C)c1nc(NCC2CCCO2)c2nnn(Cc3ccccc3)c2n1 (configuration not stated) | -0.274
7 | CCOC(=O)c1ccc(Nc2ccc(-c3ccc(OC)c(OC)c3)nn2)cc1 | -1.32
8 | COc1ccccc1N(C(=O)CNC(=O)c1ccco1)C(C(=O)NC1CCCC1)c1ccncc1 (configuration not stated) | 0.258
9 | Oc1ccc(/C=N/NC2=NCCCCC2)c(O)c1 | -0.161
10 | CC(C)C(C)NC(=O)COc1ccc(Sc2ccc(OCC(=O)NC(C)C(C)C)cc2)cc1 (configuration not stated) | 0.547
11 | COCCCNC(=O)c1ccc2c(=O)n(CC3CCCO3)c(=S)[nH]c2c1 (configuration not stated) | 0.247
12 | CCOc1ncccc1C(=O)OCC(=O)c1cc(C)n(Cc2ccco2)c1C | -0.0219
13 | O=C(c1ccc(CS(=O)(=O)c2ccc(Br)cc2)o1)N1CCN(C2CCCCC2)CC1 | -0.654
14 | CCOc1ccc(C2C(C(=O)c3ccco3)=C(O)C(=O)N2CCCn2ccnc2)cc1 (configuration not stated) | -0.458
15 | COCCn1c(COC)nc2ccccc21 | 0.868
16 | COc1ccc2nc(Nc3nc4cc5c(cc4s3)OCCO5)sc2c1 | 0.773
17 | COc1ccc(S(=O)(=O)N(C)CC(=O)NCc2cccnc2)cc1Cl | 0.0929
18 | CC1CC(C)CN(C(=O)COc2ccc(-c3nnco3)cc2)C1 (configuration not stated) | -0.47
19 | COc1cccc(C(=O)N(c2ccc(OC)cc2OC)C2C=CS(=O)(=O)C2)c1 (configuration not stated) | 0.12
20 | CCN(CC)S(=O)(=O)c1ccc(C)c(NC(=O)COc2ccc3c(C)cc(=O)oc3c2)c1 | -0.0267
21 | COc1ccc(N2CCN(c3nc(=S)n(-c4ccccc4)c(C)c3C(C)=O)CC2)cc1 | -0.322
22 | CC1(C)CC(=O)C(C=Nc2ccncc2)=C(O)C1 | -0.0532
23 | CC(NC(=O)CCNC(=O)c1ccccc1Cl)C1CC2CCC1C2 (configuration not stated) | 0.269

Row | Compound | z-score
24 | COc1cccc(C(=O)Nn2c(C)nnc2-n2nc(C)cc2C)c1 | 0.454
25 | CCN(CC)CCOc1ccc(Br)cc1 | 0.733
26 | CCOc1ccc(NC(=O)CSC2=C(C#N)C(c3ccc4c(c3)OCO4)CC(=O)N2)cc1 (configuration not stated) | -0.0625
27 | Clc1ccc(-c2csc3ncnc(N4CCc5ccccc5C4)c23)cc1 | 0.0998
28 | COc1ccc(C(=O)/C=C/Nc2cccc(C)n2)cc1OC | 0.964
29 | CCOCCOC(=O)COc1ccc2c(-c3ccccc3)cc(=O)oc2c1 | -1.15
30 | OCCCNC(=S)Nc1ccc(Oc2ccccc2)cc1 | -0.00349
31 | S=C(Nc1ccc(Cl)c(Cl)c1)NC1CCN(Cc2ccccc2)CC1 | 0.466
32 | Cc1ccccc1N1CCN(Cc2c[nH]c3ccccc23)CC1 | 1.32
33 | O=C1CCCN1c1ccc(S(=O)(=O)Oc2ccc(Cl)cc2)cc1[N+](=O)[O-] | 0.0274
34 | CCCOc1ccc(NC(=O)C2CCCNC2=O)cc1 (configuration not stated) | -0.128
35 | Cc1oc(-c2ccccc2)cc1C(=O)Nc1ccc(N(C)C)cc1 | -0.0797
36 | COc1ccc(C2=CC(=O)OC3(CCCC3)O2)cc1 | -0.561
37 | COc1cc(C(=O)N(Cc2ccco2)Cc2cc3ccccc3[nH]c2=O)cc(OC)c1OC | -0.671
38 | CCOC(=O)C(C)Sc1ncc(OC)c(=O)[nH]1 (configuration not stated) | -0.05
39 | S=C1NCCc2ccccc2C1c1ccccc1 (configuration not stated) | -0.276
40 | COc1cc(C)nc(N2CCCC(C(=O)NCC(C)C)C2)n1 (configuration not stated) | -0.0863
41 | Cc1nn(Cc2ccccc2)c(C)c1NC(=O)CSc1nnc(-c2cc(Cl)ccc2O)n1C | -0.0999
42 | Cc1cccc2cc3c(NC(=O)c4ccccn4)nn(C)c3nc12 | -0.0148
43 | O=C(O)CC(NCc1ccco1)C(=O)OCC1CCCO1 (configuration not stated) | -0.312
44 | COc1ccc(C(=O)/C=C/Nc2cc(C)on2)cc1 | 0.165
45 | CCOc1ccc(CC(=NCCO)C2=C(O)CC(C)(C)CC2=O)cc1OCC | -0.189
46 | Cc1cc(C)c(S(=O)(=O)Nc2ccccc2-c2ccccc2)c(C)c1 | 0.652

Row | Compound | z-score
47 | COc1ccc(C(=O)NCc2oc(-c3ccccc3)cc2C(=O)O)cc1 | -0.64
48 | CCn1c(SCC(=O)N/N=C/C(C)=C/c2ccco2)nnc1-c1ccccc1 | -0.0753
49 | Cc1cc(C(F)(F)F)nn1CC(=O)Nc1ccc(Br)c2cccnc12 | -0.094
50 | CC(SCc1ccccc1)C(=O)Nc1ccc2c(c1)OCO2 (configuration not stated) | -0.422
51 | Cc1cc(=O)oc2n[nH]c(-c3ccccc3)c12 | -0.525
52 | O=[N+]([O-])c1ccccc1/C=N/n1c(C2CCCCC2)n[nH]c1=S | 1.05
53 | COCCCNC(=O)CNC(=S)N(Cc1ccc(F)cc1)C1CCCCC1 | 0.433
54 | CSc1nnc(-c2sc3cc(Cl)ccc3c2Cl)n1C | -1.25
55 | O=C(CSc1nnnn1-c1cccnc1)NCc1cccs1 | 0.883
56 | Cc1occc1C(=O)NCCc1ccc(Cl)cc1 | -0.116
57 | Nc1nc(-c2ccc3c(c2)NC(=O)CO3)cs1 | -0.208
58 | Cc1ccc(C(=O)N/N=C/c2ccc(S(=O)(=O)O)o2)c(Cl)c1 | -0.207
59 | COC(=O)CC1=Nc2ccccc2NC(=O)C1 | -0.298
60 | CCCCCC(O)(CCCCC)C(=O)NNc1ccccc1 | -0.0829
61 | CCCCCCC(=O)Nc1cc2c(C)cc(=O)oc2cc1C | -0.348
62 | CCn1c(SCC(=O)Nc2nc(C)cs2)nnc1-c1ccco1 | -0.791
63 | COc1ccc(Cl)cc1C(=O)OCC(=O)NC(=O)c1cccn1C | -0.0967
64 | CCOC(=O)c1cc(-c2ccccc2)n(CC(=O)Nc2ccc(OCC)cc2)c1C | -0.158
65 | COc1cc(S(=O)(=O)n2nc(C)cc2C)c(OC)cc1Cl | 0.582
66 | CCC(C)c1ccc(OCCn2cc(/C=N/NC(=O)CSc3nnc(C)s3)c3ccccc32)cc1 (configuration not stated) | 0.38
67 | CCOc1ccc(OCc2cccc(C(=O)N/N=C/c3cccnc3)c2)cc1 | -0.0967
68 | Cc1c(N2C(=O)CS/C2=N\N=C\c2ccc(Br)cc2)c(=O)n(-c2ccccc2)n1C | -0.286
69 | COc1ccc(OC)c(C2NC(=O)c3sc(=S)n(-c4ccccc4)c3N2)c1 (configuration not stated) | 0.229

Row | Compound | z-score
70 | COc1ccc2[nH]c(=O)c(CN(Cc3nnnn3CCc3ccccc3)CC3CCCO3)cc2c1 (configuration not stated) | -0.717
71 | Cc1cc[n+](CC(=O)c2cccs2)cc1 | -0.039
72 | Cc1ccc(CSc2nnc(Nc3ccc(C)cc3)s2)cc1 | 0.48
73 | CC1CN(S(=O)(=O)c2ccc(NC(=O)CCN3C(=O)c4ccccc4C3=O)cc2)CC(C)O1 (configuration not stated) | -0.453
74 | CCN1CCc2c(sc(N)c2C(N)=O)C1 | -0.0945
75 | COc1cc(/C=N/Nc2ccccc2)ccc1OC(=O)c1cccs1 | -0.425
76 | COc1ccc(NC(=O)CN2CCC(C(N)=O)CC2)cc1 | 0.665
77 | NC(=S)Nc1cnc2ccccc2c1 | -0.176
78 | COc1ccc(-n2nc([N+](=O)[O-])c(=NCCc3ccc(Cl)cc3)n2O)cc1 | -2.2
79 | COC(=O)C1=C(C)N(c2ccc(F)c(Cl)c2)C(=O)C1 | 1.14
80 | O=C(c1cc2ccccn2n1)N1CCN(c2ccccn2)CC1 | -0.0834
81 | Cc1ccccc1-n1nnnc1SC(C)C(=O)NC1CCCc2ccccc21 (configuration not stated) | -0.733
82 | Cc1nnc(NC(=O)Nc2ccc(Cl)c(Cl)c2)s1 | -0.096
83 | COCCN(CC(=O)Nc1ccccc1C)S(=O)(=O)c1ccc(S(=O)(=O)N2CCCC2)cc1 | 0.545
84 | Cc1cc(NCCCn2ccnc2)n2ncc(-c3ccc(Cl)cc3)c2n1 | -0.224
85 | CCn1c(=O)c(C(=O)NCCCO)c(O)c2ccccc21 | active: 3.51
86 | O=c1[nH]c2cc3c(cc2cc1CN(Cc1ccccc1)Cc1nnnn1Cc1ccco1)OCCO3 | -0.277
87 | COC(=O)c1ccccc1NC(=O)c1ccc(COc2ccc(C)c(C)c2)o1 | -0.951
88 | COc1ccc(CN2CCC(=O)NC2=O)cc1 | 0.00959
89 | Cc1[nH]c2ccccc2c1C(=O)CSc1nc2ccccc2[nH]1 | -0.344
90 | CCC(C)(C)n1nnnc1C(c1ccncc1)N1CCC(Cc2ccccc2)CC1 (configuration not stated) | -0.0317
91 | CCOC(=O)CSc1cc(=O)n(C)c2cc(Cl)ccc12 | -2.26
92 | O=C(c1ccc(CS(=O)(=O)c2ccc(Br)cc2)o1)N1CCOCC1 | -0.0262

Row | Compound | z-score
93 | O=C(NC1CC1)c1ccc(CS(=O)(=O)c2c(Cl)cccc2Cl)o1 | -0.443
94 | Cc1ccc(Nc2nc(N)nc(CN3CCN(Cc4ccc5c(c4)OCO5)CC3)n2)cc1 | 0.167
95 | Cc1cccc(N=C2NC(=O)/C(=C/c3cccs3)S2)c1 | 0.118
96 | CC(C)CCNC(=O)C(c1cccnc1)N(Cc1ccccc1)C(=O)Cn1nnc2ccccc21 (configuration not stated) | -0.0344
97 | COC(=O)CSc1nnc(CNC(=O)c2ccccc2OC)n1-c1ccc(OC)cc1 | -0.0857
98 | O=C(COC(=O)CCCN1C(=O)c2cccc3cccc(c23)C1=O)Nc1ccc(Cl)cc1 | -0.14
99 | S=c1[nH]nc(-c2ccco2)n1Cc1ccccc1 | 0.271
100 | COc1cc(C(=O)OCCn2c(=O)c3c(ncn3CCN(C)C)n(C)c2=O)cc(OC)c1OC | -0.222
101 | CCCN(CCC)c1nc2ccccc2nc1C(C#N)C(=O)OC(C)COC (configuration not stated) | active: -3.86
102 | Cc1ccc(N2C(=O)c3ccccc3C2Nc2ccccc2)nc1 (configuration not stated) | -0.424
103 | Cc1ccc(C)c(Nc2ncnc(N)c2[N+](=O)[O-])c1 | 0.14
104 | COC(=O)c1[nH]c2ccccc2c1NC(=O)CN1CCN(c2cccc(Cl)c2)CC1 | -1.61
105 | Cc1cccc(C)c1OC(=O)CSc1nnc(-c2ccccc2)o1 | -0.181
106 | C(=N\n1c2ccccc2c2ccccc21)/c1ccccc1 | 0.219
107 | CC(=O)c1cc(C#N)c(SCCC(C)C)nc1C | -0.563
108 | COCCCN1C(=O)C(=O)/C(=C(/O)c2ccccc2)C1c1ccc(N(C)C)cc1 (configuration not stated) | -0.27
109 | O=C(NC1(C(F)(F)F)NC(=O)N(c2ccccc2F)C1=O)c1ccncc1 (configuration not stated) | -0.16
110 | COc1ccc(-c2nc(CCNC(=O)c3cccs3)cs2)cc1 | -0.332
111 | COc1cc(OC)c(C(=O)NC2CCCCCC2)cc1OC | -0.172
112 | O=C(c1ccco1)N1CCN(C(=O)c2ccccc2OC(=O)C23CC4CC(CC(C4)C2)C3)CC1 | -0.229
